Screen size: about 45,000 compounds; about 65 (0.1%) were called active. Calls come from the whole dose curve; as a rule, active = well fitted activation curve with a large enough effect; inconclusive = small, poorly fitted or top-dose-only effect; inactive = no such curve, though single readings can be large or run the other way. The list shows a part of the results.
Molecular target: Galactocerebrosidase (Homo sapiens) (UniProt P54803)
Experiment: A Novel Cell-Based Assay to Identify Small Molecules for B -Galactocerebrosidase; note: 0% is about no effect; nearly all actives have a fitted effect of over 65% in size
Conditions: 145M-Twi-hGALC-G270D cells, HMU-beta-Gal fluorescence, 48 h; series mostly up to 57.5 µM; activation: at the top concentration
Procedure, shortened: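 qHTS, 1536-well; 145M-Twi-hGALC-G270D cells (WT line also made) in DMEM/F12 + 10% FBS; compound incubation on live cells; HMU-β-gal 0.1 mM final, pH 5.2, NaTC; carbonate stop; fluorescence increase = enhanced residual activity.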

Chain of UniProt P54803 (P54803 whole entry, looked up): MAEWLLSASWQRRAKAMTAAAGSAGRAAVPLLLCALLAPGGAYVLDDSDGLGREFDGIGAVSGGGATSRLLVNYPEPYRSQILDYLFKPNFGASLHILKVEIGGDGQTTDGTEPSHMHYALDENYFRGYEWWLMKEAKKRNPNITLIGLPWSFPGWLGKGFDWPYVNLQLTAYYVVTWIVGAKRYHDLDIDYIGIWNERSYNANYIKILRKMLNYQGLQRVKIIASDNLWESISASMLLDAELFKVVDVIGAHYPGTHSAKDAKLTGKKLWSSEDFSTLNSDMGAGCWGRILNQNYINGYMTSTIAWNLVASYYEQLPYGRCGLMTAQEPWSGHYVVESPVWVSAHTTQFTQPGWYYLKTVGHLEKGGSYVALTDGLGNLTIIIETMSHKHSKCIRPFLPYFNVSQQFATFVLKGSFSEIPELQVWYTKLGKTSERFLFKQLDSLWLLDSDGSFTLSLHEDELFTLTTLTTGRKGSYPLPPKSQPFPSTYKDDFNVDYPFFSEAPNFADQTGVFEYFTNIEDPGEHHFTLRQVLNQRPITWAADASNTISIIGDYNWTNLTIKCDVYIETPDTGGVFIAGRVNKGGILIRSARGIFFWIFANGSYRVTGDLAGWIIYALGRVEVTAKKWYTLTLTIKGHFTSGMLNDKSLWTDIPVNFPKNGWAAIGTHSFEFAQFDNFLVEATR

Row | SMILES | activation
1 | CCCn1cc(S(=O)(=O)c2ccc(OC)cc2)c(=O)c2cc(F)c(N3CCCC(C)C3)cc21 (configuration not stated) | inactive: -11.4%
2 | Cc1ccc(S(=O)(=O)Cc2nc(-c3ccc(C(=O)NCc4ccccc4C)cc3)oc2C)cc1 | inactive: 2.9%
3 | COc1ccc(Cn2ccn(Cc3cccc(Cl)c3)c(=O)c2=O)cc1 | inactive: -17.2%
4 | CCOc1ccc(-c2nonc2NC(=O)c2oc3ccc(C)cc3c2C)cc1OCC | inactive: -14.5%
5 | CCCCCOC(=O)CSc1nc2sc3c(c2c(=O)n1-c1ccccc1)CC(C)(CC)OC3 (configuration not stated) | inactive: -9.81%
6 | O=C(Nc1cc(-c2ccccc2F)nn1-c1ccccc1)c1ccccc1Br | inactive: -2.95%
7 | O=C(COc1ccccc1F)Nc1c(C(=O)Nc2cccc(F)c2)oc2ccccc12 | inactive: -11.1%
8 | Cc1ccc(C(=O)Nc2nc3nc(-c4ccccc4)cc(=O)n3[nH]2)cc1 | inactive: -7.55%
9 | COC(=O)CCCCCn1c(-c2ccccc2)cn2c3c(=O)n(C)c(=O)n(C)c3nc12 | inactive: -1.59%
10 | CCN(CC)c1ccc(C2C(C(=O)Nc3ccccc3C)=C(C)Nc3ncnn32)cc1 (configuration not stated) | inactive: -6.52%
11 | O=C(NCc1ccccc1Cl)c1c2c(nc3ccccc13)C(=O)N(C1CCCCC1)C2 | inactive: -19.9%
12 | CCCCC(=O)Nc1ccc(OCc2cc(=O)n3c(C)csc3n2)cc1 | inactive: -15.1%
13 | Cc1ccc(C)c(N2CCN(CCCNC(=O)c3cnn(-c4ccccc4)c3C3CCN(C(=O)OC(C)(C)C)CC3)CC2)c1 | inactive: 2.77%
14 | CCN(Cc1ccccc1)Cc1c(O)ccc2c(=O)c(-c3ccc(Cl)cc3)c(C(F)(F)F)oc12 | inactive: -0.184%
15 | Cc1ccn2c(=O)cc(CSc3nnc(C)s3)nc2c1 | inactive: 0.0406%
16 | COc1ccc(OC)c(C(=O)CSc2ncc3c(n2)-c2ccccc2N(Cc2ccccc2C)S3(=O)=O)c1 | inactive: -10.4%
17 | Cc1cccc(CCn2c(=O)c3ccccc3n(CC(=O)Nc3ccccc3F)c2=O)c1 | inactive: -1.96%
18 | Cc1cc2c(cc1NC(=O)c1ccccc1Cl)n(C)c(=O)c(=O)n2C | inactive: -3.42%
19 | Cc1ccc2nc(-c3ccsc3)c(Nc3ccc(Cl)cc3)n2c1 | inactive: -13.3%
20 | COc1ccc(-c2nnc(SCC(=O)N3CCc4ccccc43)o2)cc1OC | inactive: -11.4%
21 | CCN(CC)CCCNC(=O)c1cn(CC(C)C)c(=O)c2c1c1ccccc1n2C | inactive: -10.3%
22 | Cc1ccn2cc(CNC(=O)c3cccc(C(F)(F)F)c3)nc2c1 | inactive: -2.12%
23 | Cc1cccc(-c2noc(-c3ccccc3OCC(=O)Nc3ccccc3[N+](=O)[O-])n2)c1 | inactive: -6.33%
24 | COc1ccccc1Nc1c2c(nc3ccc(NC(=O)c4ccccc4F)cc13)CCCC2 | inactive: -15.7%

Row | SMILES | activation
25 | CCOC(=O)c1ccc(NC(=O)C(C)Sc2nc(=O)cc(N)n2CCc2ccccc2)cc1 (configuration not stated) | inactive: -7.26%
26 | COc1ccc(OCC(=O)N(Cc2sccc2C)C2CCS(=O)(=O)C2)cc1 (configuration not stated) | inactive: -6.76%
27 | CC(=O)c1cccc(NC(=O)[C@H]2O[C@@H]3OC(C)(C)O[C@@H]3[C@H]3OC(C)(C)O[C@H]32)c1 | inactive: -17.4%
28 | COc1ccc(-c2nc3scc(CCNS(=O)(=O)c4ccc(Oc5ccccc5)cc4)n3n2)cc1 | inactive: -12.3%
29 | Cc1ccc(C)c(NC(=O)N2CCN3CCCCC3C2)c1 (configuration not stated) | inactive: -29.3%
30 | COc1ccc(F)cc1S(=O)(=O)Nc1ccc2c(c1)CCCN2C(=O)c1cccs1 | inactive: 16.6%
31 | COc1ccc(C(=O)CCC(=O)Nc2ccc(F)cc2F)cc1 | inactive: -5.23%
32 | O=C(Nc1ccc(F)cc1F)c1cc(S(=O)(=O)N2CCCCC2)c[nH]1 | inactive: -6.63%
33 | CCN(CC)C(=O)Cn1c(=O)n(Cc2ccc(C(=O)NCCCOC)cc2)c(=O)c2ccccc21 | inactive: -9.52%
34 | CCn1c2c(c(=O)n3ncc(C(=O)N4CCN(c5ccc(C(C)=O)cc5)CC4)c13)CN(Cc1ccc(OC)cc1)CC2 | inactive: -6.37%
35 | Cc1ccc(C)c(N2C(=O)N(Cc3cccc(C(F)(F)F)c3)c3ccccc3S2(=O)=O)c1 | inactive: 5.8%
36 | NS(=O)(=O)c1ccc(NC(=O)COc2ccc(S(=O)(=O)NC3CCCCC3)cc2)cc1 | inactive: -14.4%
37 | COC(=O)c1sccc1S(=O)(=O)N(CC(=O)NCc1ccc(C)cc1)c1ccc(C)c(C)c1 | inactive: -11.5%
38 | CCOC(=O)CSc1nc2cc(OC)c(OC)cc2c2nc(-c3ccccc3)nn12 | inactive: -2.53%
39 | CC(=O)c1c(C)oc2c1cc(NS(=O)(=O)c1c(C)cc(C)cc1C)c1ccccc12 | inactive: -3.48%
40 | CCOC(=O)C1=C(C)N=C2SCCC(=O)N2C1c1ccc(OCc2ccccc2)c(OC)c1 (configuration not stated) | inactive: -10.2%
41 | Cc1cc(NC(=O)c2cc(Cl)ccc2Cl)ccc1-c1cc2ccccc2oc1=O | inactive: -15.4%
42 | CCOc1ccc(S(=O)(=O)Nc2cccc(OC)c2)c2cccnc12 | inactive: 3.65%
43 | O=C1CS(=O)(=O)C2(C(=O)N(Cc3ccccc3)c3ccccc32)N1c1ccc(F)c(Cl)c1 (configuration not stated) | inactive: -24.2%
44 | COc1ccc(NS(=O)(=O)c2ccc3[nH]c(=O)ccc3c2)cc1OC | inactive: -17.7%
45 | COc1cccc(-n2nnc(-c3nc(-c4cccs4)no3)c2N)c1 | inactive: -11%
46 | COc1cc(OC)cc(C(=O)Nc2ccc3nc4n(c(=O)c3c2)CCCCC4)c1 | inactive: -0.7%
47 | COc1ccccc1C(=O)Oc1c(Sc2ccccc2)c(C)nn1-c1ccccc1 | inactive: -19.6%

Source: PubChem BioAssay AID1159614 (National Center for Advancing Translational Sciences (NCATS), 2016)
